Results: the RNAGym collection of RNA variant scans (doi:10.1073/pnas.2313332121)
Variants at the background level are over-represented here.

B1: TPR 5TU (parent)
chain: GGAUCUUCUCGAUCUAACAAAAAAGACAAAUCUGCCACAAAGCUUGAGAGCAUCUUCGGAUGCAGAGGCGGCAGCCUUCGGUGGCGCGAUAGCGCCAACGUUCUCAACUAUGACACGCAAAACGCGUGCUCCGUUGAAUGGAGUUUAUCAUG

Variants of: B1
Assay: polymerase ribozyme fitness, log enrichment relative to wild type (log ratio); higher = more active; in vitro selection for triplet polymerase activity
Outline: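 Each subunit of a heterodimeric triplet polymerase ribozyme was mutagenized into a library by PCR, transcribed, and subjected to one round of in vitro selection, run in triplicate. Libraries were annealed with a biotinylated primer, the partner subunit and triplets, incubated frozen at −7 °C, and extended constructs were gel-excised, captured on streptavidin beads and recovered by RT-PCR. Input and output libraries were sequenced on Illumina, keeping genotypes with ≥10 input reads and ≥1 read per output. Fitness is log base 2 of genotype enrichment divided by wild-type enrichment, from inverse-variance-weighted replicate averages.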
With G50U G81A U102G the “polymerase ribozyme fitness (log ratio)” value was -2.74.
For A52C A64G A89G C108U, the “polymerase ribozyme fitness (log ratio)” value was ≤ -4.2.
With A52C G58U A66G C87G the “polymerase ribozyme fitness (log ratio)” value was ≤ -4.2.
With G50C A66C C93U U139G U148C the “polymerase ribozyme fitness (log ratio)” value was ≤ -4.2.
With C51U U61A G86C the “polymerase ribozyme fitness (log ratio)” value was -4.06.
For G50C C54G U56C G94U A106G, the “polymerase ribozyme fitness (log ratio)” value was ≤ -4.2.
With C51G C57G G88A C116U G136U U148A the “polymerase ribozyme fitness (log ratio)” value was ≤ -4.2.
In the case of G50A G71C G92A, the “polymerase ribozyme fitness (log ratio)” value is reported as ≤ -4.2.
For A52G A64C C69U A138G, the “polymerase ribozyme fitness (log ratio)” value was ≤ -4.2.
With C51U A73U C118G A119C the “polymerase ribozyme fitness (log ratio)” value was -1.81.
In the case of G50C C85A C95G G117A G140A, the “polymerase ribozyme fitness (log ratio)” value is reported as ≤ -4.2.
With A49U U56G G81A G94A U146G the “polymerase ribozyme fitness (log ratio)” value was ≤ -4.2.
In the case of G50A G65A C85U, the “polymerase ribozyme fitness (log ratio)” value is reported as -3.49.
In the case of G50U G86A C93U C96U, the “polymerase ribozyme fitness (log ratio)” value is reported as -0.529.
For C51U U90G C93A A121C U127C, the “polymerase ribozyme fitness (log ratio)” value was ≤ -4.2.
In the case of G50C C57G C95A A115C, the “polymerase ribozyme fitness (log ratio)” value is reported as ≤ -4.2.
With G50A C76A G92C C108G U144C the “polymerase ribozyme fitness (log ratio)” value was ≤ -4.2.
For G50U G92U A106U A110G U127G, the “polymerase ribozyme fitness (log ratio)” value was ≤ -4.2.
With C51U A89C C96U A142U the “polymerase ribozyme fitness (log ratio)” value was -2.78.
With G50A U53C U56A A91U G94C A142C the “polymerase ribozyme fitness (log ratio)” value was ≤ -4.2.
In the case of C51G U56A, the “polymerase ribozyme fitness (log ratio)” value is reported as -2.67.
For A52G A121C, the “polymerase ribozyme fitness (log ratio)” value was -0.337.
With C51U C85G C96G A119C the “polymerase ribozyme fitness (log ratio)” value was ≤ -4.2.
For C51U C96U C105U, the “polymerase ribozyme fitness (log ratio)” value was 0.0676.
For A49U G86A C87G A106C G136U A150C, the “polymerase ribozyme fitness (log ratio)” value was ≤ -4.2.
In the case of A52C U148A, the “polymerase ribozyme fitness (log ratio)” value is reported as -4.18.
With G50C A122G G136A G140U the “polymerase ribozyme fitness (log ratio)” value was ≤ -4.2.
With C51A C76U C87A the “polymerase ribozyme fitness (log ratio)” value was ≤ -4.2.
For G50C C54U G94U G140C A147U, the “polymerase ribozyme fitness (log ratio)” value was ≤ -4.2.
For C51U A60G C87A U135A, the “polymerase ribozyme fitness (log ratio)” value was ≤ -4.2.
In the case of C51U G94U A98C A120G U139A G140U, the “polymerase ribozyme fitness (log ratio)” value is reported as ≤ -4.2.
In the case of C51G C57A G88C, the “polymerase ribozyme fitness (log ratio)” value is reported as ≤ -4.2.
In the case of G50C G59A U145C, the “polymerase ribozyme fitness (log ratio)” value is reported as -3.51.
With G50C C54G G84C C125A the “polymerase ribozyme fitness (log ratio)” value was ≤ -4.2.
For C51G G74U C79A G100C G124C, the “polymerase ribozyme fitness (log ratio)” value was ≤ -4.2.
For C51A U55A C87A, the “polymerase ribozyme fitness (log ratio)” value was ≤ -4.2.
With A52C C93G the “polymerase ribozyme fitness (log ratio)” value was -3.65.
With C51U A73G C96G C123U the “polymerase ribozyme fitness (log ratio)” value was -0.999.
With G50U G126A G141C the “polymerase ribozyme fitness (log ratio)” value was -4.02.
In the case of G50A C93U C95A U111A G141U, the “polymerase ribozyme fitness (log ratio)” value is reported as ≤ -4.2.
In the case of A52G C69A G80U C87G C108G C114U, the “polymerase ribozyme fitness (log ratio)” value is reported as ≤ -4.2.
In the case of G50C C63G C85U C93A, the “polymerase ribozyme fitness (log ratio)” value is reported as ≤ -4.2.
For C51U C72U G84U A106G A121U C123A A138C, the “polymerase ribozyme fitness (log ratio)” value was ≤ -4.2.
With G50U A120U C125G the “polymerase ribozyme fitness (log ratio)” value was -0.502.
With G50U A122G the “polymerase ribozyme fitness (log ratio)” value was -0.236.
For C51A A52G C57U C79U C85G G88U C108G A115U, the “polymerase ribozyme fitness (log ratio)” value was ≤ -4.2.
With C51U A66C C85G C108G C132U the “polymerase ribozyme fitness (log ratio)” value was ≤ -4.2.
For A52C U56A C75U A89U U90G C95G U151G, the “polymerase ribozyme fitness (log ratio)” value was ≤ -4.2.
For G50C A52C C54U G88A C96G, the “polymerase ribozyme fitness (log ratio)” value was ≤ -4.2.
For C51U U61G C96U G133U, the “polymerase ribozyme fitness (log ratio)” value was ≤ -4.2.
For A52C G67C G83U C108U G124U, the “polymerase ribozyme fitness (log ratio)” value was ≤ -4.2.
For G50C C72A G74A A91C C149A, the “polymerase ribozyme fitness (log ratio)” value was ≤ -4.2.
For A52C U53A U55G G83U C105U U151G, the “polymerase ribozyme fitness (log ratio)” value was ≤ -4.2.
For G50C G92A C116U U151C, the “polymerase ribozyme fitness (log ratio)” value was ≤ -4.2.
For A52G A73C C95A C108A A113C A121G, the “polymerase ribozyme fitness (log ratio)” value was ≤ -4.2.
With C51U C69A C72U C96A C129G C149G the “polymerase ribozyme fitness (log ratio)” value was ≤ -4.2.
With G50C C87G C114A A115G the “polymerase ribozyme fitness (log ratio)” value was ≤ -4.2.
With A52G C57A G92U the “polymerase ribozyme fitness (log ratio)” value was -0.753.
In the case of G50A G65A C75U C85A C95U C125G C131U, the “polymerase ribozyme fitness (log ratio)” value is reported as ≤ -4.2.
With C51G C57A G83C C87A C96A the “polymerase ribozyme fitness (log ratio)” value was ≤ -4.2.
In the case of G50C U55G C63A C76G A91G C125G U145C, the “polymerase ribozyme fitness (log ratio)” value is reported as ≤ -4.2.
In the case of A52C C75A C95A C96U C125A, the “polymerase ribozyme fitness (log ratio)” value is reported as ≤ -4.2.
In the case of G50C A52G C76G G83A C87G G100U U145A, the “polymerase ribozyme fitness (log ratio)” value is reported as ≤ -4.2.
For A52C A113U, the “polymerase ribozyme fitness (log ratio)” value was -3.88.
In the case of A52C A113C, the “polymerase ribozyme fitness (log ratio)” value is reported as -3.36.
In the case of C51U U56A A73U U78G A91U G141C G152A, the “polymerase ribozyme fitness (log ratio)” value is reported as -3.97.
With C51U U53A C93A G124U the “polymerase ribozyme fitness (log ratio)” value was -3.59.
With G50U A52G C75A C85A G92C G126U G128A A147U the “polymerase ribozyme fitness (log ratio)” value was ≤ -4.2.
For A49U U56A G68C G92C C103A A115C C118U, the “polymerase ribozyme fitness (log ratio)” value was ≤ -4.2.
With G50A C54G G88U A120U A142G the “polymerase ribozyme fitness (log ratio)” value was ≤ -4.2.
With G50A G59U C75G U90G C95G the “polymerase ribozyme fitness (log ratio)” value was ≤ -4.2.
In the case of G50C A64U C103A G141U, the “polymerase ribozyme fitness (log ratio)” value is reported as ≤ -4.2.
In the case of A52C C76G C93A A138G U139A U148G, the “polymerase ribozyme fitness (log ratio)” value is reported as ≤ -4.2.
With G50U C79U G84A C103U the “polymerase ribozyme fitness (log ratio)” value was ≤ -4.2.
In the case of G50C C103A C149U, the “polymerase ribozyme fitness (log ratio)” value is reported as ≤ -4.2.
With C51U U55A C93U C95U the “polymerase ribozyme fitness (log ratio)” value was ≤ -4.2.
In the case of C51G C54A G83U C85G C114U U151C, the “polymerase ribozyme fitness (log ratio)” value is reported as ≤ -4.2.
In the case of G50U C87U U135G G141U, the “polymerase ribozyme fitness (log ratio)” value is reported as ≤ -4.2.
In the case of C51U A150C, the “polymerase ribozyme fitness (log ratio)” value is reported as ≤ -4.2.
In the case of A52C C72U C96A C123U, the “polymerase ribozyme fitness (log ratio)” value is reported as -2.72.
For G50C A60C U78C G94U A98U C118A, the “polymerase ribozyme fitness (log ratio)” value was ≤ -4.2.
With G50A C51U A73G C76U A89U C93U the “polymerase ribozyme fitness (log ratio)” value was ≤ -4.2.
In the case of C51G C57A G94U A115C U130C G143U, the “polymerase ribozyme fitness (log ratio)” value is reported as ≤ -4.2.
